# Experimental data from publication PMC12136788.
# Some of the results follow.
# T1: UNK ZnF1-6 (called full-length) (human, UniProt Q9C0B0 30-357)
# T1 sequence: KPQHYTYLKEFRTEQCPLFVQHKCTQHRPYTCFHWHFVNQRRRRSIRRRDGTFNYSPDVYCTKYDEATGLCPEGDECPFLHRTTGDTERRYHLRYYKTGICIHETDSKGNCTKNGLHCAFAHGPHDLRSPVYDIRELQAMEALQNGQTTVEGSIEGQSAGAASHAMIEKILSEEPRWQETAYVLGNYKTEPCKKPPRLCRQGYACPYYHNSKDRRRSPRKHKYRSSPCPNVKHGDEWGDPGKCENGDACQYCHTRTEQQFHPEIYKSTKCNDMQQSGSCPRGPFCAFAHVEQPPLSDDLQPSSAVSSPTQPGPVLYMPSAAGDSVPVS
# B1: chr8:133458587:133458688:-|3pUTR|ENSG00000008513|msi1|FALSE|unique (ssRNA)
# RNA: GGGAGUUCUACAGUCCGACGAUCAUGAAACAAAAGCCCUUACUUGGGAAAAGGGACCCCCACCAGCGGCCCUGCUUGCUCCGUAGCUGGGAACAUCUUUUCUGGUUUCCUGAGCCAGCACCUGAAUUGCAACGAAGCUCUGAGCAACAGAGGAUUGAGCAUCA
# B2: chr5:180576808:180576909:+|3pUTR|ENSG00000113300|unk|total|mutant (ssRNA)
# RNA: GGGAGUUCUACAGUCCGACGAUCUAUUUUCCGUGUCCUAAAUAAUUUUCAAUAAUCUAUAAUCCCUAAAAUGCAAUAAAAACCCGUAUGUUUUCACGGUGUAUAUUUUUUUUCAAAAAUUCUGUAACAAAUAUAUUUAAUGUGCAACAGAGGAUUGAGCAUCA
# B3: chr14:70725571:70725672:-|3pUTR|ENSG00000006432|unk|FALSE|unique (ssRNA)
# RNA: GGGAGUUCUACAGUCCGACGAUCUAUUGUUAGAAACGCAUUACCAAAUGCAUCUCUUCUGUCGGAUCAGCGUAUUCCUAGAUUAGGAAUUCAAAUUAAUGAAAAUUCACAUAUGAAAGGAAAAUCCAUUGCUAUUUCUGGAGACAACAGAGGAUUGAGCAUCA
# B4: chr6:37331633:37331734:+|3pUTR|ENSG00000065491|unk|total|mutant (ssRNA)
# RNA: GGGAGUUCUACAGUCCGACGAUCCCGUUCCCCUUCUGCCCCAGUCUGAGCCAGUGAGGGGCCGCUUUUUAAAACCAUUAUUCCCGAUGGAGGAGGCACUGAUGCUUGUAACUCUGGAAAGAGGCCUACACCCAAGGGCCCGGACAACAGAGGAUUGAGCAUCA
# B5: chr1:35190724:35191005:-|CDS|ENSG00000116560|unk|total|mutant (ssRNA)
# RNA: GGGAGUUCUACAGUCCGACGAUCGCCCUUUCUGUUCGUAAUCUUUCACCUUAUGUUUCCAAUGAACUGUUGGAAGAAGCCUUCCGCCAAUUUGGUCCUAUUGAAAGGGCUGUUGUAACCGUGGAUGAUCGUGGAAGAUCUACACAACAGAGGAUUGAGCAUCA
# B6: chr3:64018827:64018930:-|CDS|ENSG00000163636|unk|FALSE|unique (ssRNA)
# RNA: GGGAGUUCUACAGUCCGACGAUCUGAACUCAUGGAUUAUAAAACAUUUGUGACUUAUACUGUCUAUGUCAGUAUGAUUGCCUUAGAAAGACCAGAUCUCAGGGAAAAGGUAAUGACCAAACUUUAAUACUCAAAUUUAAAGACCAACAGAGGAUUGAGCAUCA
# B7: chr19:7926739:7926850:-|3pUTR|ENSG00000104980|unk|FALSE|unique (ssRNA)
# RNA: GGGAGUUCUACAGUCCGACGAUCAGGGUGGGACCCGGGACCCGCGGCUCAGUGGCCCGCUAGCCACGUCAGCCAAGCCACUUUAGGUCCAUUUUUUAAUUUUAACAGUGCUCUUCCAUCUUGUGCAUAAGCCUGAGAUUUGGACAACAGAGGAUUGAGCAUCA
# B8: chr11:69651696:69651723:+|3pUTR|ENSG00000110092|msi1_unk|FALSE|overlapping (ssRNA)
# RNA: GGGAGUUCUACAGUCCGACGAUCGAGGAUUAGGUUCCAUCCUUUACGUGUUUAAAAAAAAGCAUAAAAACAUUUUAAAAACAUAGAAAAAUUCAGCAAACCAUUUUUAAAGUAGAAGAGGGUUUUAGGUAGAAAAACAUAUUCCAACAGAGGAUUGAGCAUCA
# B9: chr6:43570573:43570674:-|CDS|ENSG00000124571|unk|FALSE|unique (ssRNA)
# RNA: GGGAGUUCUACAGUCCGACGAUCGGUGUAGGAAACACAGACAGAAUUGGUGAUGUUUAUCCUUUUGCGACUGGCAGAGGAUGUAGUGACUUUUCAGACACUUCCCCCUCAAAGAAGAAGGGACAUCCAGCAAACAUUAACCCACAACAGAGGAUUGAGCAUCA
# B10: chr14:88620753:88620926:-|CDS|ENSG00000165521|control|control|control (ssRNA)
# RNA: GGGAGUUCUACAGUCCGACGAUCCAGCCCUGAAGGGGACAUGGUGGCUAUUGGAAUGAAAAAUGGAGAAUUUAUCAUUUUACUAGUGAGUUCUCUAAAAAUAUGGGGAAAGAAGAGAGACAGGAGAUGUGCAAUCCAUGAUAUCAACAGAGGAUUGAGCAUCA
# B11: ENSG00000198589:be:win_301|CDS|ENSG00000198589|bound_else_gene|NA|bound_elsewhere_windowed (ssRNA)
# RNA: GGGAGUUCUACAGUCCGACGAUCAAAUGUGACAUUACGUGCCAAGCAGAAGUCUGGAGCAUGUUUACAGCCAUUCUGAAGAAAAGCAUACGGAAUCUUCAAGUCUGCACUGAAGUAGGCCUUGUUGAAAAAGUGCUUGGGAAACAACAGAGGAUUGAGCAUCA
# B12: chr13:109754583:109754684:-|3pUTR|ENSG00000185950|msi1|FALSE|unique (ssRNA)
# RNA: GGGAGUUCUACAGUCCGACGAUCGAUCUCCCUGAACAUUUUUAAGGUUUUACUUUUCUGAAAUUAUACAUCACAGCAGUGCAUAGGCCAUAUAAUGUUAGCUGGAAGGUCAAUUUCAGUGUAUGAUAUACUUUAUUAAGAUGUCAACAGAGGAUUGAGCAUCA
# B13: chr21:41885111:41889123:-|three_prime_utr|ENSG00000157617|control|control|control (ssRNA)
# RNA: GGGAGUUCUACAGUCCGACGAUCCCAACUUGCCACCAGAUGCUAAAUGAGACUUGACAGCUGCAGAGCUUGGGCUGUGCUCAUAGCUAAGGGUUAGGGUUCAAUAUUAGAAGGAGAUUAACAUUAUAAGUGAAAUAAUAUGCUCAACAGAGGAUUGAGCAUCA
# B14: chr4:169989555:169989656:-|3pUTR|ENSG00000198948|unk|FALSE|unique (ssRNA)
# RNA: GGGAGUUCUACAGUCCGACGAUCUUGGACAACUCCCUUCCUCUCUCUGGGAUUUAAUCUUUUUCAUCUGUAAAAUAUGCAGGUAGUACUCGAGGGUCUACAGGAUCCCUUCUAGUUGAAACAUUUAUAGUUCACAGAAAGUUUCAACAGAGGAUUGAGCAUCA
# Target: T1, UNK ZnF1-6 (called full-length)
# Experiment: nsRBNS (natural sequence RNA bind-n-seq); RBNS binding buffer (assumed for nsRBNS): 25 mM Tris pH 7.5, 150 mM KCl, 3 mM MgCl2, 0.01% Triton X-100, 500 ug/ml BSA, 20 U/ml SUPERase-In, 4 C; UNK is unkempt and MSI1 is Musashi-1; names of the RNAs are library labels; protein concentration not given here; high values mean tight binding
row,Binder,binding signal
1,B1,0.658 enrichment R
2,B2,10.6 enrichment R
3,B3,2.56 enrichment R
4,B4,0.736 enrichment R
5,B5,0.479 enrichment R
6,B6,0.48 enrichment R
7,B7,3.77 enrichment R
8,B8,13.5 enrichment R
9,B9,0.529 enrichment R
10,B10,0.851 enrichment R
11,B11,0.329 enrichment R
12,B12,0.723 enrichment R
13,B13,2.63 enrichment R
14,B14,0.885 enrichment R
